Test results: PubChem BioAssay AID1814 (Broad Institute, 2009)
Hit rate of the full screen: of about 300,000 compounds, about 22,000 (7.3%) were called active. The shares of active, inactive and inconclusive entries below differ from those in the screen. No stated cut-off is given here; in the data, active means activity score below about -60%; inconclusive means mostly about -28% to -61%; inactive means positive scores.

Assay: Activators via SNCA 5'UTR binding, MLPCN (AID 1814)
Settings: alpha-synuclein 5'UTR reporter, activators screen; active compounds read low; tested at 7.5 µM

Activity score, inactive:
CCCNC(=O)c1ccc(-c2nc3ccccc3s2)s1 79.2%, Cc1ccc(C(=O)N2CCN(c3ccc(NC(=S)NC(=O)c4cccs4)cc3)CC2)cc1 52%, O=C1c2ccc3c4c(ccc(c24)C(=O)N1c1cccc(O)c1)C(=O)N(c1cccc(O)c1)C3=O 68.1%, CCn1nc(C)c(NC(=O)/C=C/c2ccc(OC)c(COc3ccc(Br)cc3)c2)c1C 61.8%, COc1ccc(Nc2oc(COc3ccc(Cl)cc3)nc2C#N)cc1 90.6%, C#CC(=O)N(c1ccc(OC)cc1OC)C(C(=O)NC1CCCC1)c1cccs1 (centres undefined) 92%, CCN1CCN(Cc2ccc(NC(=O)c3ccc(C)c(NC(=O)c4c[nH]c5cc(C(F)(F)F)ccc5c4=O)c3)cc2C(F)(F)F)CC1 113%, Oc1c(CN2CCOCC2)cc(COCc2ccccc2)c2cccnc12 114%, CCN1CCN(C(=S)c2ccc(-c3ccccc3)cc2)CC1 65.8%, COc1cc2c(cc1OC)-c1cc(NC3CCCCCCC3)nc(=O)n1CC2 70%, CCOc1ccc(-c2cc(CCCC(=O)NCc3ccc(C)cc3)no2)cc1 80.7%, COc1ccc(/C=C/c2cc(C(=O)O)c3ccccc3n2)cc1 80.6%, Cn1c(=O)c2c(nc(NCc3ccco3)n2C/C=C/c2ccccc2)n(C)c1=O 90.4%, CC1(C)Cc2nc3sc4c(SCC(=O)NCc5ccccc5)ncnc4c3cc2CO1 64%, CN(C)c1ccc(/C=C/c2ccc3ccccc3n2)cc1 89.1%, COc1ccc(OC)c(Nc2nc(-c3sc(NC(=O)CC(C)C)nc3C)cs2)c1 57.9%, O=C(C1=C[C@@H](c2csc3ccccc23)C[C@@H](OCc2ccc(CO)cc2)O1)N1CCN(Cc2ccc3c(c2)OCO3)CC1 68.8%, COc1ccc(C=C2c3ccccc3C(=O)c3ccccc32)c(OC)c1 97.6%, CCOc1ccccc1CNS(=O)(=O)c1ccc(-c2cnc(C3CC3)o2)cc1 74.3%, CCN(CC)c1nc(Nc2ccc(Cl)cc2)nc(OCC#N)n1 70%, COc1ccc(-c2ccc(SC)nn2)cc1 75%, CCCCCCCn1ccc(=N)cc1 56.3%, COc1ccc(Cc2nnc(N/N=C/c3ccc(O)cc3)[nH]c2=O)cc1OC 82.2%, CC(C)(C)c1cc(C(=O)N/N=C/c2ccccc2O)n(-c2ccccc2)n1 62.4%, NCCOc1ccc(C2CCCCC2)cc1 71.4%, N=c1c2c(n(Cc3ccc(Br)cc3)c3c1CCC3)CCCC2 59.5%

Activity score, inconclusive:
O=C1NC(c2cccc(Cl)c2)Nc2ccccc21 (centres undefined) -55.5%, Cc1cc(NCCCn2ccnc2)n2nc(-c3ccc(F)cc3)cc2n1 -54.5%, CC(C)c1ccc(-c2cc(C(=O)N3CCOCC3)c3cc(Br)ccc3n2)cc1 -44.4%, Cc1ccc(N2CCN(c3ccc(C)cc3)C(CC(=O)O)C2=O)cc1 (centres undefined) -55.5%, Cc1cccn2cc(COc3ccc(-c4ccccc4)cc3)nc12 -54.1%, Cc1cccc(-c2noc(-c3ccoc3C)n2)c1 -57.4%, CN1C(=S)N(c2cccnc2)C(=O)/C1=C\c1ccc(N(C)C)cc1 -42.4%, CN(C)/C=C/C(=O)c1ccc(C(F)(F)F)cc1F -57.6%, CCn1cc(CNC(=O)NC2CCCCC2)c(C)n1 -44.3%, COc1ccc(CCn2c(-c3ccco3)nc3nc4ccccc4nc32)cc1 -56.5%, COc1ccc(-c2csc3ncnc(N4CCN(S(=O)(=O)c5ccc(Cl)s5)CC4)c23)cc1 -35.9%, O=C(Nc1cccc(-c2cn3cccnc3n2)c1)c1ccc2c(c1)OCO2 -50.8%, COCC(=O)Nc1cc(C)c2c(=O)oc3ccccc3c2n1 -47.6%, COc1cc(CNCCN2CCOCC2)ccc1OCc1ccc(Cl)cc1 -36%, CC(C)Cc1ccc(CN2CCCC(NC(=O)CCN3CCCO3)C2)cc1 (centres undefined) -56.5%, CC(C)(C)c1cc(NC(=O)CCl)n(-c2ccccc2)n1 -59.9%, Cc1ccc(C(=O)/C=C/c2ccco2)c(O)c1 -45.8%, O=c1[nH]c2cc3c(cc2cc1C(c1nnnn1Cc1ccccc1)N1CCCc2ccccc21)OCO3 (centres undefined) -42.6%, CC(=O)OC1C(N2CCCCC2)c2c(ccc(/C=C/C(=O)N3CCCCC3)c2O)OC1(C)C (centres undefined) -51.3%, COc1ccc(C(=O)NC(=S)Nc2ccc3oc(=O)ccc3c2)cc1[N+](=O)[O-] -52.7%, O=C(Nc1ccc2c(c1)OCCO2)c1cccc(S(=O)(=O)N2CCCCC2)c1 -42.9%, COc1ccccc1-c1nc(N)n[nH]1 -56.8%, Cn1c(=O)c(-c2ccccc2)nc2ccccc21 -48.3%, O=C(Oc1ccccc1-c1nnco1)c1ccccc1 -43.7%, N/C(=N\OC(=O)N1CCOCC1)c1ccc(Br)cc1 -61.4%, CCOC(=O)c1c(NC(=O)/C=C/c2ccco2)sc(C)c1C -59.8%, CCC(C)Oc1ccccc1C1CC(=O)NC2=C1C(=O)CCC2 (centres undefined) -57.5%, CC(=O)CSc1nc2ccc(Nc3nc(N4CCOCC4)nc(N4CCOCC4)n3)cc2s1 -48%, O=C(Nc1cccnc1)c1cc(Br)c(Br)s1 -55.3%, C/C(=C\C(=O)c1ccncc1)Nc1ccccc1O -39.1%, CCN(CC)c1ccc(NC(=O)c2cc3c(OC)cccc3[nH]2)cc1 -57.1%, Cc1cc[n+](-c2ccccc2)c2ccccc12 -38.7%, O=C(/C=C/c1ccc(Cl)cc1)NC1CC2CCC1C2 (centres undefined) -55.2%, CCCCCn1c(=O)[nH]c2cc(C(=O)NCCN3CCC(C)CC3)ccc2c1=O -46.3%, CCOc1ccc(NC(=O)C2CC3CCC2C3)cc1 (centres undefined) -55.7%, O=C(N/N=C/c1ccccn1)c1cc(-c2cccc3ccccc23)n[nH]1 -60.2%, CSc1nc(NCc2ccccc2)c2c3c(sc2n1)CN(C)CC3 -60.4%, COc1cccc(C2c3[nH]c4ccccc4c3CCN2Cc2ncc[nH]2)c1 (centres undefined) -53.9%, CCCSc1nc2sc3c(c2c(=O)[nH]1)CC(C)CC3 (centres undefined) -45.4%, O=C(/C=C/c1c(Cl)nc2ccccn12)Nc1ccc(F)cc1 -59.7%, OCCCCNCc1ccc(OCc2ccccc2)cc1 -59.9%, Cc1cc(C)n(-c2ccc(N3CCOCC3)nn2)n1 -39.3%, CC1CCN(C(=O)c2ccc(S(=O)(=O)Cc3cc(F)ccc3F)c([N+](=O)[O-])c2)CC1 -53.8%, Cc1csc2ncc(C(=O)Nc3ccon3)c(=O)n12 -61%, CSc1ccc(/C=C/c2ccc3cccc(O)c3n2)cc1 -51.6%, CC(=O)NCCC(=O)Nc1nc2ccc(Oc3ccccc3)cc2s1 -48.1%, O=C(O)c1cccc(CN2C(=O)S/C(=C/c3ccccc3[N+](=O)[O-])C2=O)c1 -45.1%

Activity score, active:
COc1ccc(NC(=O)Nc2cccc(C)n2)cc1 -201%, Cc1ccc(C(=O)Nc2nc(=O)n(C(=O)c3ccccc3Cl)s2)cc1 -104%, c1cnc(Nc2nc(-c3ccc4ccccc4c3)cs2)nc1 -125%, CCOCCCNC(=O)c1ccc(Br)cc1 -84.1%, N#C/C(=C(/O)c1ccc(Cl)cc1)c1nc2ccccc2[nH]1 -67.3%, O=C(Nc1ccc2c(c1)OCO2)c1ccc(COc2ccc3c(c2)CCC3)o1 -76.1%, C/C(=N\NC(=O)c1c(Br)cnn1C)c1ccc(NC(=O)c2ccc(F)cc2)cc1 -108%, COCCCNC(=O)/C=C/c1ccc(Cl)cc1Cl -84.6%, O=C(Nc1ccccc1O)c1ccc(NS(=O)(=O)c2cccc3cccnc23)cc1 -605%, Cc1c(Cl)c(C(=O)NNC(=S)Nc2ccc(F)cc2)nn1C -70.3%, N/C(=N\OC(=O)Cc1ccccc1)c1ccccn1 -76.6%, CNC(C)C#Cc1ccc2c(=O)c3c(OC)cccc3oc2c1 (centres undefined) -66.4%, C/C(=N\Nc1cccc(C(=O)O)c1)c1cc2ccccc2o1 -66.4%, CC(=O)c1cc(NC(=O)c2ccc(C)cc2)c(=O)oc1C -117%, Cc1ccc2nc(-c3ccc(NC(=O)CN(C)S(=O)(=O)c4ccccc4)cc3)sc2c1 -67.2%, COc1ccc(/C=C2\SC(=O)N(CCNC(=O)Cn3cnnn3)C2=O)cc1 -187%, CC(=O)Nc1ccc(N/C=C/C(=O)c2ccccc2)cc1 -255%, O=c1c2ccccc2nc(-c2ccccc2)n1Cc1ccccc1 -93%, Cc1sc(NC(=O)c2ccc(=O)n(C)n2)nc1-c1ccccc1 -95.3%, Cc1csc2nc(CSc3nc4ccccc4o3)c(Br)n12 -129%, CCOC(=O)c1cnc(Nc2nc3ccccc3o2)nc1CSc1ncccn1 -100%
